Results from publication PMC9182007, “Statistical Methods in the Study of Protein Binding and Its Relationship to Drug Bioavailability in Breast Milk” (Molecules, 2022).
Like-named read-outs stand apart in the source and are kept apart here.

Experiments:
[1] = target: T1, bovine serum albumin (BSA) (Bos taurus, UniProt P02769); assay: RP TLC on plates impregnated with bovine serum albumin; assay type: binding; conditions: Table S4, RP plate impregnated with 2 mg/mL BSA; pH 7.4 mobile phase
T1 construct: purchased Sigma Aldrich

[2] = target: human serum albumin (HSA) (Homo sapiens, UniProt P02768)
[3] = tested on: plasma protein; conditions: Table S1, plasma protein binding given as fraction; ref DrugBank [7]; cited from earlier work
[4] = Table S1, coded 1/0; ref DrugBank [7]; cited from earlier work
[5] = Table S1; source not stated; cited from earlier work
[6] = target: T1, bovine serum albumin (BSA); assay: NP TLC on plates impregnated with bovine serum albumin; assay type: binding; conditions: Table S3, NP plate impregnated with 2 mg/mL BSA; pH 7.4 mobile phase
[7] = Milk-to-plasma (M/P) drug concentration ratio obtained in vivo, from literature; set-up: species or system human; conditions: Table S1, scale of drug penetration into milk 1-4
[8] = Table S1, milk/plasma drug concentration ratio, in vivo; cited from earlier work
[9] = Table S5, retention factor, HSA column, pH 7.4, 25 degrees Celsius

T1 sequence (P02769 25-607): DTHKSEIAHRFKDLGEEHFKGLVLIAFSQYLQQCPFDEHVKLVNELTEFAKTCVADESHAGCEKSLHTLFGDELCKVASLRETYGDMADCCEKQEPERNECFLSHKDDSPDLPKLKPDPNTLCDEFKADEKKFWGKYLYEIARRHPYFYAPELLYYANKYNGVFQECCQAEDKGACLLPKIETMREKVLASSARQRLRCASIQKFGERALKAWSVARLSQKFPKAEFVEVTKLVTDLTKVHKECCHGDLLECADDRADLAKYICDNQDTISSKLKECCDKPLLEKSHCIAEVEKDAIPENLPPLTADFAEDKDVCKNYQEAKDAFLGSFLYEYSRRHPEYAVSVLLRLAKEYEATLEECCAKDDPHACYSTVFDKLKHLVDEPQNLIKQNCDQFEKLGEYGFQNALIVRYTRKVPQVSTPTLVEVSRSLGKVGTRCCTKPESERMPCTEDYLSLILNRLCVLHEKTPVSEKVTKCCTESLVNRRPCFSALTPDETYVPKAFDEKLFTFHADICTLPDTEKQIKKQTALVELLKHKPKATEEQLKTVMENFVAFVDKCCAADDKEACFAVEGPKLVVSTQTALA
human serum albumin (HSA), sequence (P02768 25-609): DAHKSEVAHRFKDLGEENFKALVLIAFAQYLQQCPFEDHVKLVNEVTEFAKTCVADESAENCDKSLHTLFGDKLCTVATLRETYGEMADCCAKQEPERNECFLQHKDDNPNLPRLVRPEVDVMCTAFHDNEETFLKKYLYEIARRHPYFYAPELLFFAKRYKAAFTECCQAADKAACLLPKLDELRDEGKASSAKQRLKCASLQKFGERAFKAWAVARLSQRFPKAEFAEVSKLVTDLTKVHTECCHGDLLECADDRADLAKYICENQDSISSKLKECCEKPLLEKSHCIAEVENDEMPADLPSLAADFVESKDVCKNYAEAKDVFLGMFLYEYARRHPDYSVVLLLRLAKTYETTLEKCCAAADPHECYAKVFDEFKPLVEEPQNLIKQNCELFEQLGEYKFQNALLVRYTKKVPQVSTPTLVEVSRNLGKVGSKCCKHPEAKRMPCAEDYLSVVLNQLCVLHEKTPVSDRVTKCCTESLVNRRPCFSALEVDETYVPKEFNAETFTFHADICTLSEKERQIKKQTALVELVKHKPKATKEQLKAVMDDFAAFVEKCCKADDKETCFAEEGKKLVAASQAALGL

In the case of `CCCCc1oc2ccccc2c1C(=O)c1cc(I)c(OCCN(CC)CC)c(I)c1` [amiodarone], the “RP (Rf, BSA-impregnated RP plate)” value [1] is reported as 0.34.
With `CC(C)c1c(C(=O)Nc2ccccc2)c(-c2ccccc2)c(-c2ccc(F)cc2)n1CC[C@@H](O)C[C@@H](O)CC(=O)O` [atorvastatin] the “log k HSA” value ([2]; Table S5, HSA, pH 7.4) was 0.54, the “k HSA” value [2, 9] was 3.48 and the “RP (Rf, BSA-impregnated RP plate)” value [1] was 0.89. For the same compound, the PB [3] was 0.98 and the “CNS+/-” value [4] was 0.
For `CN1[C@@H]2CC[C@H]1C[C@@H](OC(=O)C(CO)c1ccccc1)C2` (some centres unmarked) [atropine], the PB [3] is given as 0.18.
For `CC1=C(C(=O)O)N2C(=O)[C@@H](NC(=O)[C@H](N)c3ccccc3)[C@H]2SC1` [cephalexin], the PB [3] is listed as 0.14.
In the case of `O=C(O)COCCN1CCN(C(c2ccccc2)c2ccc(Cl)cc2)CC1` (centres unmarked) [cetrizine], the BB vivo [5] is given as -2.150.
In the case of `O=C(O)c1cn(C2CC2)c2cc(N3CCNCC3)c(F)cc2c1=O` [ciprofloxacin], the PB [3] is given as 0.3.
In the case of `CN1C(=O)CN=C(c2ccccc2)c2cc(Cl)ccc21` [diazepam], the BB vivo [5] is listed as 0.346.
For `CC(C)(C(=O)O)c1ccc(C(O)CCCN2CCC(C(O)(c3ccccc3)c3ccccc3)CC2)cc1` (centres unmarked) [fexofenadine], the PB [3] is listed as 0.65.
In the case of `NS(=O)(=O)c1cc(C(=O)O)c(NCc2ccco2)cc1Cl` [furosemide], the PB [3] is given as 0.95.
In the case of `CCOC(=O)N1CCC(=C2c3ccc(Cl)cc3CCc3cccnc32)CC1` [loratadine], the PB [3] is given as 0.98.
In the case of `COc1ccc2cc([C@H](C)C(=O)O)ccc2c1` [naproxen], the “k HSA” value [2, 9] is reported as 90.08, the “RP (Rf, BSA-impregnated RP plate)” value [1] is reported as 0.87 and the “NP (Rf, BSA-impregnated NP plate)” value [6] is reported as 0.89.
For `O=C1Nc2ccc(Cl)cc2C(c2ccccc2)=NC1O` (centres unmarked) [oxazepam], the “k HSA” value ([2]; pH 7.4) is listed as 1.65, the M/P code [7] is listed as 1 (Code 1 corresponds to drugs with an M/P value <0.40—completely safe) and the M/P [8] is listed as 0.1. For the same compound, the PB [3] was 0.85 and the BB vivo [5] was 0.580.
In the case of `CCCNCC(O)COc1ccccc1C(=O)CCc1ccccc1` (centres unmarked) [propafenone], the “RP (Rf, BSA-impregnated RP plate)” value [1] is listed as 0.61, the PB [3] is listed as 0.97 and the “NP (Rf, BSA-impregnated NP plate)” value [6] is listed as 0.59.
For `CN1C(=O)C(O)N=C(c2ccccc2)c2cc(Cl)ccc21` (centres unmarked) [temazepam], the PB [3] is listed as 0.96.
